Hit rate of the full screen: of about 43,000 compounds, about 200 (0.47%) were called active. Roughly 12% stayed inconclusive and do not appear here. The call rests on the fitted dose curve; in most records, active means well fitted cell-killing curve with a large enough effect; inconclusive means small, poorly fitted or top-dose-only effect, or effect the other way; inactive means flat fitted curve, though single readings scatter. The list shows a part of the results.
On the % scale 0 is the no-effect control and ±100 the full control effect.

This assay in a line: Cell viability qHTS assay in S16 Pmp22-F2sN cells. Further: nearly all actives have a fitted effect of over 65% in size. The conditions noted are these: S16 Pmp22-F2sN Schwann cells (luciferase reporters placed in the Pmp22 gene) viability, CellTiter-Glo, 24 h; series mostly up to 57.5 µM; activity change, negative = cytotoxicity: at the top concentration. The gist of the method: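 S16 Schwann cells carrying the Pmp22-F2sN reporter, seeded in 1536-well format, were exposed to library compounds for 24 h at 37C. Viability was read as CellTiter-Glo luminescence after 15 min at room temperature.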
`COc1ccc(NC(=O)CSc2nc3cc(OC)c(OC)cc3c3nc(-c4ccccc4)nn23)cc1Cl`: the “activity change, negative = cytotoxicity” value was inactive: 2.47%. To `Cc1cc(C)c(NC(=O)CCCN2C(=O)COc3ccc(C)cc32)c(C)c1` belongs inactive: -3.39%; to `COc1ccccc1N1CCN(S(=O)(=O)c2c(C)sc3ncn(CC(=O)Nc4ccc(C(F)(F)F)cc4)c(=O)c23)CC1`, inactive: 4.78%. In the case of `CC(=O)c1ccc(NC(=O)C2CCCN(S(=O)(=O)c3ccc4c(c3)CCCN4C(C)=O)C2)cc1` (stereo not drawn) it was inactive: -16.6%. To `O=C(Cn1ccc2cc(S(=O)(=O)N3CCCCC3)ccc21)NCCc1ccc(Cl)cc1` belongs inactive: -23.9%; to `COC(=O)c1sc(NC(=O)c2cc3nc(-c4ccc(Br)cc4)cc(C(F)(F)F)n3n2)c(C(=O)OC)c1C`, inactive: -20.4%; to `CCc1ccc(NC(=O)c2cc3nc(-c4ccc(C)cc4)cc(C(F)(F)F)n3n2)cc1`, inactive: -0.829%. On to `O=C(O)Cc1sc(Nc2ccccc2Cl)nc1-c1ccccc1`, for which the “activity change, negative = cytotoxicity” value was inactive: 16.8%. Turning to `CCOC(=O)c1c(NC(=O)Cc2coc3cc(C)ccc23)sc2c1CCCC2`, the “activity change, negative = cytotoxicity” value is inactive: 10.4%.

As to `Cc1ccc(OCC(=O)Nc2ccccc2C(=O)OCc2cc(=O)n3ccsc3n2)cc1C`, the “activity change, negative = cytotoxicity” value was inactive: -2.66%. In the case of `COc1ccc(CCNC(=O)CN(c2cc(C(F)(F)F)ccc2Cl)S(C)(=O)=O)cc1`, the “activity change, negative = cytotoxicity” value is inactive: 20.7%. To `O=C(COc1ccc(F)cc1)Nc1ccccc1C(=O)OCc1cc(=O)n2nc(C3CC3)sc2n1` belongs inactive: 5.89%. In the case of `Cc1nc2nc(SCc3ccc(F)cc3Cl)nn2c(C)c1Cc1ccccc1` it was inactive: -5.82%; in that of `CCOc1ccc(-c2cn3c(n2)sc2cc(C(=O)NCCCc4ccccc4)ccc23)cc1`, inactive: 3.67%; in that of `CCC1CN(C(=O)N2CCC(C(=O)Nc3cc(C)ccc3C)CC2)c2ccccc2O1` (stereo not drawn), inactive: 3.67%.

With `COc1cc(C2c3c(oc4ccccc4c3=O)C(=O)N2c2nncs2)cc(OC)c1OC` (stereo not drawn), the “activity change, negative = cytotoxicity” value was inactive: 2.42%. To `Cc1cccc(-c2cc(NC(=O)C(C)(C)C)n(-c3ccccc3)n2)c1` belongs inactive: -4.37%.

As for `Cc1nc2nc(-c3ccc(Cl)cc3Cl)nn2c(C)c1CCC(=O)Nc1ccc(F)cc1`, the “activity change, negative = cytotoxicity” value is inactive: 8.91%. Regarding `CCCCN(C)CCCNC(=O)CN1C(=O)COc2ccc(S(=O)(=O)N3CCOCC3)cc21`, the “activity change, negative = cytotoxicity” value was inactive: 9.95%. In the case of `O=C(CS(=O)(=O)c1cccc2nsnc12)NCc1ccc(Cl)cc1` it was inactive: -1.8%.

Turning to `COc1ccc(-c2c(C)nn3c4c(cnc23)C(=O)CC(c2ccccc2)C4)cc1` (stereo not drawn), the “activity change, negative = cytotoxicity” value is inactive: 5.87%. To `CCc1ccc(CNC(=O)CCSCc2ccccc2F)cc1` belongs inactive: 11%.

With `O=C(CSc1nc(-c2ccccc2)no1)N1CCN(c2ccccc2F)CC1`, the “activity change, negative = cytotoxicity” value is inactive: 3.2%. To `COc1cccc(C2=CC(c3ccc(OC)c(OC)c3OC)n3ncnc3N2)c1` (stereo not drawn) belongs inactive: -5.04%. To `CCN(C(=O)Cc1nc(-c2ccc(OC)cc2)no1)c1cccc(Cl)c1` belongs inactive: -5.39%; to `O=C(Cn1c(=O)nc(-c2ccccc2)c2ccccc21)Nc1ccc(Cl)c(C(F)(F)F)c1`, inactive: 2.04%; to `COc1ccccc1OCCn1c(-c2ccc(Cl)cc2)nc2ccccc2c1=O`, inactive: -2.14%. To `COc1ccc(C(=O)c2cn(CC(=O)Nc3ccc4c(c3)OCCO4)c3ccc(OC)cc3c2=O)cc1` belongs inactive: -5.8%; to `Cc1ccc(C(C)C)c(OCC(=O)Nc2cccc(NC(=O)c3ccco3)c2)c1`, inactive: -1.97%; to `Cc1ccc(-c2ccc(=O)n(Cc3cc(C)ccc3C)n2)cc1`, inactive: -11.6%. On to `CCC(CC)C(=O)NC1CC(=O)N(c2ccc3c(c2)OCCO3)C1` (stereo not drawn), for which the “activity change, negative = cytotoxicity” value is inactive: 12.2%. To `Cc1nc(-c2ccccc2)sc1-c1ccc(SCC(=O)NCc2ccc(F)cc2)nn1` belongs inactive: 6.61%; to `Cn1c(=O)c2c(SCC(=O)N3CCc4ccccc43)nc(-c3ccccc3Cl)nc2n(C)c1=O`, inactive: 21.7%. Consider `CCN(c1cc(C)cc(C)c1)S(=O)(=O)c1nnc(NC(=O)c2cccs2)s1`, for which the “activity change, negative = cytotoxicity” value was inactive: 1.37%. In the case of `CCOc1ccc(-n2c(CCC(=O)O)ccc2-c2ccc(Br)cc2)cc1` it was inactive: -0.951%; in that of `CCOc1ccc(-n2c(SCC(=O)N3CCCC3)nc3c([nH]c4ccccc43)c2=O)cc1`, inactive: 10.4%; in that of `COc1ccc(-c2cc(C(F)(F)F)c(C#N)c(SCC(=O)Nc3ccc(F)cc3)n2)cc1`, inactive: -16.1%. In the case of `COc1ccc(-c2cn3nc(N4CCC(C(=O)NCc5ccccc5F)CC4)sc3n2)cc1` it was inactive: 8.4%; in that of `Cc1ccc(NCc2cccn2-c2nnc(N3CCC(C(=O)NC(C)C)CC3)s2)cc1`, inactive: -21%; in that of `CCc1ccc(CNC(=O)c2ccc3c(c2)N=C(C)c2cc(C)ccc2S3)cc1`, inactive: -17.9%. Turning to `CN(C)CCNC(=O)c1ccc(-n2c(-c3ccccc3)cc3c2CCCC3)cc1`, the “activity change, negative = cytotoxicity” value was inactive: 26.4%. In the case of `COc1ccc(CNc2ncnc3onc(C)c23)cc1` it was inactive: -25.5%; in that of `COc1ccc(NC(=O)Cn2c(=O)oc3cc(S(=O)(=O)NC4CCCC4)ccc32)cc1OC`, inactive: -0.715%. To `CCCNC(=O)c1ccc2c(c1)ncn2-c1ccc(C)cc1C` belongs inactive: -14.4%. In the case of `CCOC(=O)c1c(NC(=O)CS(=O)(=O)c2ccc(C)cc2)sc2c1CCCCC2` it was inactive: 0.0492%; in that of `Cc1ccc(S(=O)(=O)C(CNC(=O)C(=O)NCc2ccc(Cl)cc2)c2cccs2)cc1` (stereo not drawn), inactive: 13.1%; in that of `CC(=O)c1ccc(NC(=O)c2cn3c4c(ccc(Cl)c4c2=O)OC(C)C3)cc1` (stereo not drawn), inactive: -0.29%. As to `CCC(=O)N1c2ccc(S(=O)(=O)N3CCN(c4ccccc4)CC3)cc2CC1C` (stereo not drawn), the “activity change, negative = cytotoxicity” value is inactive: 0.344%.

The values above are taken from PubChem BioAssay AID1508642 (National Center for Advancing Translational Sciences (NCATS), 2021).
